Data reported in the BET-seq Pho4 binding data (Le et al. 2018).
The other results are listed elsewhere or left out. These are noisy estimates, calculated here from bound and input reads.

What follows are sequences tested against T1, Pho4 (S. cerevisiae) (UniProt P07270) (assay: relative binding free energy (BET-seq); higher = weaker binding). Conditions: reference: library average.
T1 sequence: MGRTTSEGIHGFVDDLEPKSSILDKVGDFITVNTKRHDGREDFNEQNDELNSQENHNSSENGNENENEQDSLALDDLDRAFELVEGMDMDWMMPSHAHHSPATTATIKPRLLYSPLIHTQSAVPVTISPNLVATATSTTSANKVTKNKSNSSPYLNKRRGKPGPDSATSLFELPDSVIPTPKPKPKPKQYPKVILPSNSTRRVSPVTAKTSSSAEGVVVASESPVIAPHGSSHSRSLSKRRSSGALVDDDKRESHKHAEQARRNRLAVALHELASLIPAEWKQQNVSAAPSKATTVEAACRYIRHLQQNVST

Sequence | relative binding free energy
TAATACACGTGGATTT | 0 kcal/mol
ATTATCACGTGATTGG | 0.34 kcal/mol
GAGTGCACGTGTGTAA | 0.03 kcal/mol
GTTTACACGTGAGTTC | 0.35 kcal/mol
GGTCTCACGTGTGCAG | 0.34 kcal/mol
TACCGCACGTGTGGTG | -0.1 kcal/mol
GTCTACACGTGTGGTT | 0.21 kcal/mol
TACGTCACGTGAGGGT | 0.18 kcal/mol
TTGGGCACGTGGCACA | -0.07 kcal/mol
TAGCGCACGTGTGTTA | -0.07 kcal/mol
TATAGCACGTGCGTTG | -0.19 kcal/mol
TTGTTCACGTGTCGGA | 0.31 kcal/mol
TGTAACACGTGTGTGC | -0.19 kcal/mol
GTCGTCACGTGAGGTA | 0.31 kcal/mol
AGAGTCACGTGGCGTC | 0.02 kcal/mol
TTGGACACGTGACGTT | 0.19 kcal/mol
AGGCCCACGTGATGTG | 0.18 kcal/mol
GAGACCACGTGGTGGG | -0.04 kcal/mol
CAACGCACGTGTGGGG | -0.09 kcal/mol
TCGGGCACGTGTCGGG | 0.04 kcal/mol
TAAGGCACGTGGGAGA | -0.27 kcal/mol
GATGCCACGTGGAGTG | -0.01 kcal/mol
TGGAGCACGTGGTGCC | -0.17 kcal/mol
TTGTTCACGTGCATCT | 0.16 kcal/mol
ATTTTCACGTGTGTAT | 0.22 kcal/mol
ATGATCACGTGATTAG | 0.34 kcal/mol

Sequence | relative binding free energy
GTGAACACGTGTGAGT | 0.12 kcal/mol
GGTCCCACGTGGGGGC | -0.19 kcal/mol
AAGGGCACGTGATTAG | -0.09 kcal/mol
AGACGCACGTGGGGAT | -0.13 kcal/mol
TCATTCACGTGATTTG | 0.4 kcal/mol
GGAATCACGTGGGTCA | 0.08 kcal/mol
TCAGTCACGTGGGTGT | -0.05 kcal/mol
AGAGTCACGTGGCGCT | 0.06 kcal/mol
TGTAACACGTGTTCAG | -0.03 kcal/mol
ATGGGCACGTGTTTCA | -0.1 kcal/mol
CAATGCACGTGGTGTA | -0.22 kcal/mol
TTTTGCACGTGATACT | -0.05 kcal/mol
AGTGTCACGTGAGGCG | 0.33 kcal/mol
TCACTCACGTGGGGGT | 0.19 kcal/mol
TAGGGCACGTGGCCTG | -0.21 kcal/mol
CATGACACGTGTGGTC | 0.19 kcal/mol
TTTTACACGTGGAGGG | 0.08 kcal/mol
GTTTGCACGTGACGTT | 0.12 kcal/mol
TCTGGCACGTGGTAGG | -0.13 kcal/mol
GTAGACACGTGGCTTG | -0.01 kcal/mol
GCGGGCACGTGGGTGG | -0.21 kcal/mol
TGTTTCACGTGGAAAT | 0.2 kcal/mol
TTTCGCACGTGGGTTA | -0.07 kcal/mol
AGTGGCACGTGAAGGC | 0.13 kcal/mol
TGGAGCACGTGGAGAT | 0.05 kcal/mol
GCGAGCACGTGAGGGA | 0.26 kcal/mol

Sequence | relative binding free energy
ATTGACACGTGAGGGG | 0.21 kcal/mol
TACATCACGTGTGAGT | 0.31 kcal/mol
TGGGTCACGTGGTCGC | -0.01 kcal/mol
TAAGGCACGTGGGAGG | -0.14 kcal/mol
TTTAACACGTGGCTGT | -0.06 kcal/mol
GTTTACACGTGATTTG | 0.23 kcal/mol
GTATACACGTGTTGTA | 0 kcal/mol
TGATTCACGTGTAAGG | 0.32 kcal/mol
GGAAACACGTGAAGGG | 0.23 kcal/mol
TAGGTCACGTGGGCAC | 0.05 kcal/mol
ATTTTCACGTGTGTCG | 0.32 kcal/mol
AGCTGCACGTGTATGT | -0.06 kcal/mol
CGAGACACGTGGTTGT | -0.06 kcal/mol
TAGTTCACGTGGAGGA | 0.24 kcal/mol
TGTATCACGTGGATCG | 0.09 kcal/mol
TTTCGCACGTGTTTAA | -0.05 kcal/mol
AGGTGCACGTGGCAGA | -0.08 kcal/mol
CATTTCACGTGGTTTT | 0.08 kcal/mol
GTGCTCACGTGTATGG | 0.18 kcal/mol
TTTCTCACGTGCGTAG | 0.36 kcal/mol
TGTCTCACGTGCAGGG | 0.2 kcal/mol
TTAGTCACGTGCAATG | 0.07 kcal/mol
TTGTGCACGTGTATTC | 0.13 kcal/mol
TTTGTCACGTGAAGCA | 0.3 kcal/mol
GTTGCCACGTGTAGAG | -0.09 kcal/mol
TCTTACACGTGGTGGC | 0.11 kcal/mol

Sequence | relative binding free energy
CGGTTCACGTGCGTTT | 0.31 kcal/mol
CGGGTCACGTGGGTCA | 0.03 kcal/mol
TTTGACACGTGAGTCG | 0.1 kcal/mol
TGGTGCACGTGTAAAC | 0.06 kcal/mol
AGACTCACGTGTTGTT | 0.21 kcal/mol
GGTTCCACGTGGGGCG | 0.01 kcal/mol
CGATGCACGTGCGGTT | 0.15 kcal/mol
GATGCCACGTGCGGGG | -0.2 kcal/mol
GTCTACACGTGGATGT | 0.11 kcal/mol
TAGGGCACGTGTCAGT | 0.02 kcal/mol
TGGTGCACGTGTGGCT | 0.05 kcal/mol
GATGACACGTGGTTGG | 0.01 kcal/mol
TGGTACACGTGTGTAA | 0.02 kcal/mol
TTTGCCACGTGTATTG | -0.11 kcal/mol
AGGGGCACGTGGCGGC | -0.18 kcal/mol
CTGCGCACGTGTGGGC | -0.02 kcal/mol
TCAATCACGTGGGGGT | 0.07 kcal/mol
TGTGCCACGTGGTGGT | -0.19 kcal/mol
TTTCGCACGTGACAGT | 0.09 kcal/mol
TGGATCACGTGGATGC | 0.12 kcal/mol
TTGGGCACGTGGAAGC | 0.09 kcal/mol
TGTAGCACGTGGAACT | 0.05 kcal/mol
AGATTCACGTGATGCG | 0.29 kcal/mol
GTTCTCACGTGTGAGG | 0.27 kcal/mol
GGGGGCACGTGAATGA | 0.15 kcal/mol
TTGGTCACGTGAGAGA | 0.42 kcal/mol

Sequence | relative binding free energy
GTTATCACGTGATGGC | 0.45 kcal/mol
ATGTACACGTGTGTTA | 0.05 kcal/mol
AAAGGCACGTGGTGCG | -0.2 kcal/mol
ATTTGCACGTGTCGGG | -0.04 kcal/mol
CGTAGCACGTGGCAGG | -0.16 kcal/mol
GGTATCACGTGTGTTT | 0.21 kcal/mol
TTTCACACGTGGCATT | 0.09 kcal/mol
GTCGTCACGTGTATAT | 0.13 kcal/mol
TTAGGCACGTGTTACT | -0.16 kcal/mol
CGAAACACGTGTGGGG | 0.04 kcal/mol
TTTGACACGTGAGTAG | 0.02 kcal/mol
TGAACCACGTGTTTAT | 0.15 kcal/mol
GTATTCACGTGGTGAC | 0.24 kcal/mol
TTTTGCACGTGGCTCT | -0.11 kcal/mol
ATTTGCACGTGAATTA | 0.23 kcal/mol
CAGTTCACGTGGGGCA | 0.03 kcal/mol
GTAGCCACGTGGGTAA | -0.11 kcal/mol
TGGAACACGTGTTTAG | -0.02 kcal/mol
AAGTTCACGTGGTACG | 0.22 kcal/mol
GTCGTCACGTGTGTTA | 0.16 kcal/mol
TTATTCACGTGAGCTT | 0.37 kcal/mol
TTACGCACGTGAGGGG | 0.13 kcal/mol
TGGATCACGTGGTGAG | 0.08 kcal/mol
TATTGCACGTGGCGGC | -0.01 kcal/mol
ATGTTCACGTGAAGCG | 0.26 kcal/mol
GTAAGCACGTGGGTGA | -0.03 kcal/mol

Sequence | relative binding free energy
GTGCGCACGTGGAGAG | 0.03 kcal/mol
AGGTTCACGTGGCGTC | 0.19 kcal/mol
GAAAGCACGTGGGGTA | -0.21 kcal/mol
ATATTCACGTGCGTGA | 0.21 kcal/mol
GGAGACACGTGTACGG | 0.18 kcal/mol
AATGGCACGTGTATAT | -0.1 kcal/mol
TGGGTCACGTGCGGCT | 0.01 kcal/mol
AAAGTCACGTGGGGTT | 0.07 kcal/mol
GTGGACACGTGTATTA | 0.11 kcal/mol
GGTTACACGTGTGTCA | 0.14 kcal/mol
TGAGCCACGTGGATGG | -0.22 kcal/mol
ACGTGCACGTGAATGT | 0.11 kcal/mol
ATGGACACGTGCTAGT | 0.08 kcal/mol
ATGTACACGTGATTTA | 0.19 kcal/mol
AACGGCACGTGAGGTG | 0.22 kcal/mol
AGTGTCACGTGAGAGG | 0.18 kcal/mol
TATTACACGTGTATGA | 0.1 kcal/mol
GAGGCCACGTGAGGGT | 0.08 kcal/mol
AATCGCACGTGGGGGT | -0.24 kcal/mol
TAAATCACGTGGGGAG | -0.13 kcal/mol
CTGAGCACGTGGCTGG | -0.18 kcal/mol
TAGTACACGTGAGTGA | 0.25 kcal/mol
ATAGACACGTGATAGT | 0.06 kcal/mol
TGTATCACGTGTTGTT | 0.22 kcal/mol
AATGGCACGTGGTGGA | -0.1 kcal/mol
GGTGGCACGTGTTCTT | -0.08 kcal/mol

Sequence | relative binding free energy
TTGGTCACGTGTTGAT | 0.14 kcal/mol
CGGTTCACGTGGATGT | 0.29 kcal/mol
TGGAGCACGTGGGATA | -0.01 kcal/mol
AGGTTCACGTGCGCTG | 0.26 kcal/mol
TACATCACGTGTGGAT | 0.24 kcal/mol
TGGGGCACGTGGCCTG | -0.24 kcal/mol
ATTGGCACGTGATCGT | -0.08 kcal/mol
TGGTTCACGTGTCGTA | 0.31 kcal/mol
ATATTCACGTGCATTG | 0.22 kcal/mol
GTATTCACGTGATTTA | 0.4 kcal/mol
TGAGGCACGTGCTGGG | -0.18 kcal/mol
CGTTTCACGTGGGATG | 0.26 kcal/mol
TTAAGCACGTGGTGGT | -0.25 kcal/mol
TTTATCACGTGTCATT | 0.22 kcal/mol
CTTAGCACGTGAGTTT | 0.15 kcal/mol
GTATTCACGTGCATGG | 0.22 kcal/mol
CTGGGCACGTGAGGAA | 0.06 kcal/mol
TGTGTCACGTGTGGCG | 0.03 kcal/mol
TTTGCCACGTGTGTGG | -0.04 kcal/mol
GCGTGCACGTGTAGTT | 0.14 kcal/mol
TATAGCACGTGGAGGA | -0.06 kcal/mol
ACGGGCACGTGATGTA | -0.09 kcal/mol
TCTGTCACGTGTATTG | 0 kcal/mol
ATTATCACGTGAAGGA | 0.2 kcal/mol
GTTCTCACGTGGGGAA | 0.03 kcal/mol
TGGGGCACGTGTGGTA | -0.08 kcal/mol

Sequence | relative binding free energy
TTGTTCACGTGCCAGT | 0.22 kcal/mol
TTGGGCACGTGACGCG | -0.12 kcal/mol
ATGAGCACGTGGTGGT | -0.18 kcal/mol
TCGTTCACGTGTATTT | 0.42 kcal/mol
ATTTTCACGTGGACTA | 0.39 kcal/mol
GGCCACACGTGGGTGG | -0.13 kcal/mol
ATCTTCACGTGGGGGT | 0.05 kcal/mol
GTAGGCACGTGGGACT | -0.21 kcal/mol
GGTTTCACGTGATAAT | 0.52 kcal/mol
TATATCACGTGGGGTG | 0.02 kcal/mol
TTTACCACGTGTTATG | 0.02 kcal/mol
AATTACACGTGTTATT | 0.15 kcal/mol
CGGTTCACGTGAGGTC | 0.4 kcal/mol
TGTTCCACGTGGGAGC | 0.12 kcal/mol
TGTGTCACGTGAGCTT | -0.03 kcal/mol
GTTCGCACGTGTTGCG | 0.11 kcal/mol
TTGATCACGTGAATAT | 0.28 kcal/mol
GCCTGCACGTGTTGGG | 0 kcal/mol
TCAAGCACGTGGTTTG | -0.12 kcal/mol
AGTTGCACGTGTGTGG | 0.04 kcal/mol
CGGGGCACGTGGAGCT | -0.26 kcal/mol
GTGAACACGTGAGGTC | 0.23 kcal/mol
TGTCTCACGTGTCATT | 0.33 kcal/mol
TGCGTCACGTGTTTTC | 0.21 kcal/mol
TTACTCACGTGAAGGT | 0.36 kcal/mol
CATTTCACGTGGGGGA | -0.1 kcal/mol

Sequence | relative binding free energy
GGTACCACGTGTTTGG | 0.05 kcal/mol
TTTATCACGTGAGTGA | 0.16 kcal/mol
AATGTCACGTGGTGCT | 0.05 kcal/mol
ATGTGCACGTGTCCGT | -0.06 kcal/mol
GGGGGCACGTGTGATG | -0.03 kcal/mol
GAATTCACGTGGGCGG | 0.12 kcal/mol
GGGTTCACGTGGAAAT | 0.31 kcal/mol
TATGTCACGTGATAGC | 0.2 kcal/mol
CGTGTCACGTGAGTTT | 0.36 kcal/mol
ATGTGCACGTGAAGCT | 0.28 kcal/mol
ATATACACGTGAGGGA | 0.15 kcal/mol
CAGGTCACGTGGTCGG | 0.1 kcal/mol
GATGTCACGTGGTCTG | 0.18 kcal/mol
TGTTTCACGTGGGTCA | 0.2 kcal/mol
TTTTACACGTGAAACT | 0.39 kcal/mol
TGATGCACGTGTTCTA | 0.06 kcal/mol
GGGGTCACGTGGCGCA | 0.01 kcal/mol
AGGTACACGTGAGGAG | 0.21 kcal/mol
GTCGACACGTGGTGTG | -0.02 kcal/mol
CCGTTCACGTGGGTGT | 0.07 kcal/mol
TAGCGCACGTGGTAGG | -0.06 kcal/mol
ATGTGCACGTGCAGGA | -0.04 kcal/mol
